Experimental data published in PubChem BioAssay (Tox21).
This list was built around the results that the source calls inconclusive (neither active nor inactive); the mix of calls is not that of the screen. No potency is given beside an inconclusive call; the fits are too rough. Calls of active or inactive are those of the source. The call rests on the fitted dose curve; in most records, active means well fitted curve in the direction sought with a large enough effect in the repeat runs; inconclusive means weak or mixed curves; inactive means no such curve, though single readings can be large; an effect the other way counts as inactive or inconclusive.

Test: A CellTox Green Cytotoxicity Assay to monitor cytotoxicity in HepG2 cells - 8 hour (AID 1224890); further: nearly all actives have a fitted effect of over 45% in size
Details: CellTox Green fluorescence; series mostly up to 76.8 µM
Method in brief: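 Fluorescent DNA-binding dye, 600 HepG2 cells/well, 5 h preincubation then compound in DMSO; same plates read at 0–40 h, 37 C.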
On the % scale 0 is the no-effect control and ±100 the full control effect; potency means the concentration at half of the fitted maximal effect; tags describe the fitted curve by direction and shape.

SMILES | Potency | cytotoxicity increase
CCCCCCCCCCCCCCCC(=O)OC/C=C(C)/C=C/C=C(C)/C=C/C1=C(C)CCCC1(C)C | inactive | 
CC(=O)Nc1ccccc1 | inactive | 
CCN(CC)CCOC(=O)C1(c2ccccc2)CCCC1 | inactive | 
CC(C)=NNC(N)=S | inconclusive [activator, partial curve] | 
O=C(O)c1cccnc1Nc1cccc(C(F)(F)F)c1 | inactive | 
C=CC(=C)CC/C=C(\C)CCC=C(C)C |  | inactive: 2.8% [at 15.8 µM]
C=C(C)c1cccc(C(C)(C)N=C=O)c1 | inactive | 

Test: qHTS assay to identify small molecule antagonists of the estrogen receptor alpha (ER-alpha) signaling pathway using the BG1 cell line in the presence of 0.1 nM 17-beta-estradiol - cell viability counter screen (AID 1259241); further: nearly all actives have a fitted effect of over 40% in size
Details: VM7Luc4E2 (BG1) viability, CellTiter-Fluor protease, 22 h, 0.1 nM estradiol agonist added; series mostly up to 92.4 µM
Method in brief: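 Measures cytotoxicity alongside the ER-alpha antagonist readout: VM7Luc4E2 cells, charcoal-stripped serum, 0.1 nM 17beta-estradiol final, 22 hr compound incubation at 37C, CellTiter-Fluor fluorescence.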

SMILES | Potency | activity change, negative = cytotoxicity
CCN(CC)CCOC(=O)C1(c2ccccc2)CCCC1 | inactive | 
CCC(C)(C)C | inconclusive [cytotoxic, single point] | 
CCC(C)(CCCC(C)C)OC(C)=O (stereo not given) | inactive | 
CC(C)c1ccccc1C(C)C | inactive | 
CC1=NN(c2cc(S(=O)(=O)O)ccc2Cl)C(=O)C1N=Nc1ccccc1 (stereo not given) | inconclusive [cytotoxic, partial curve] | 
Cc1cccc(C)c1NC(=O)CN(CC(=O)O)CC(=O)O | inactive | 
N=C(N)c1ccc(OCCCOc2ccc(C(=N)N)cc2)cc1 | inactive | 
COc1ccccc1NC(=O)CC(C)=O | inactive | 
Cl/C(=C\n1cncn1)c1ccc(Cl)cc1Cl | inactive | 
CCS(=O)(=O)c1ccc(OC)c(C(=O)OC)c1 | inactive | 
CCC(C)OC(=O)N1CCCCC1CCO (stereo not given) | inactive | 
Cc1cn([C@@H]2O[C@H](CO)[C@@H](O)[C@@H]2F)c(=O)[nH]c1=O | inactive | 
CCN(CCO)CCCC(C)Nc1ccnc2cc(Cl)ccc12 (stereo not given) |  | inactive: -6.05% [at 8.39 µM]
